# Laboratory results reported in PubChem BioAssay AID686979 (National Center for Advancing Translational Sciences (NCATS), 2013).
# Values joined by “and” are separate entries in the source; they are usually repeats but may differ in a detail not shown here. Identical values can stand only once. The campaign covered roughly 420,000 compounds. About 50,000 (12%) were called active. The inconclusive results got no clear call from the source; some entries with a clear call stand among them for comparison. The call rests on the fitted dose curve; in most records, active means well fitted inhibition curve with a large enough effect; inconclusive means small, poorly fitted or top-dose-only effect; inactive means flat fitted curve, though single readings scatter. A potency beside an inconclusive call is a rough fit, not a confirmed value.
# Test: qHTS for Inhibitors of human tyrosyl-DNA phosphodiesterase 1 (TDP1): qHTS in cells in presence of CPT; further: nearly all actives have a fitted effect of over 55% in size
# Settings: chicken DT40 Tdp1-/-;hTDP1 cells + 20 nM CPT, ATP luminescence, 48 h; activity change, negative = growth inhibition: at 46.2 µM (top of the series)
# Procedure, shortened: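 Chicken DT40 Tdp1-/- cells complemented with human TDP1, 400 cells/well, exposed to compounds plus 20 nM camptothecin for at least 48 h at 37 C; viability read as ATP content by CellTiter-Glo luminescence.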
# On the % scale 0 is the no-effect control and ±100 the full control effect; potency means the concentration at half of the fitted maximal effect; tags describe the fitted curve by direction and shape.
SMILES,Potency,"activity change, negative = growth inhibition"
O=c1cnc2ccccc2n1Cc1ccc(Br)cc1,inactive,
CCOc1ccccc1CNC(=O)CCC(=O)N1CCSc2ccccc21,"inconclusive: 25.9 µM [inhibitor, single point]",
COc1ccc(-c2cc(=Nc3ccc(C)cc3)c3ccccc3o2)cc1,"inconclusive: 29.1 µM [inhibitor, single point]",
Cc1ccccc1NS(=O)(=O)c1ccc(NS(=O)(=O)c2cccs2)cc1,inactive,
COc1ccc(S(=O)(=O)N(C)C[C@H]2Oc3c(cccc3N(C)C)C(=O)N([C@H](C)CO)C[C@@H]2C)cc1,"inconclusive: 18.4 µM [inhibitor, single point]",
CN(C)CCCN(C(=O)c1ccc(S(=O)(=O)N2CCCCCC2)cc1)c1nc2c(F)cc(F)cc2s1,"inconclusive: 29.1 µM [inhibitor, single point]",
Cc1ccc(N2CCN(C(=S)c3ccc(-c4cccc([N+](=O)[O-])c4)o3)CC2)cc1,inactive,
CN(CC(=O)Nc1ccc(F)cc1)C(=O)C1CCCC1,inactive,
CCN(Cc1ccccc1)S(=O)(=O)c1ccc2oc(C(=O)O)c(C)c2c1,inactive,
CCN(CC)S(=O)(=O)c1ccc2[nH]cc(C(=O)NCCCN3CCCCC3)c(=O)c2c1,inactive,
CN1C(CSCC(F)(F)F)Nc2cc(Cl)c(S(N)(=O)=O)cc2S1(=O)=O (configuration not stated),"inconclusive: 26.6 µM [inhibitor, single point]",
Cc1ccc(S(=O)(=O)N2CCCC2C(=O)Nc2nc3ccccc3s2)cc1 (configuration not stated),"inconclusive: 25.9 µM [inhibitor, single point]",
O=CC(=O)c1ccc(Cl)cc1,"inconclusive: 35.5 µM [inhibitor, single point]",
O=[N+]([O-])c1cc(-c2nc(-c3ccccc3)no2)ccc1NCc1cccnc1,active: 11.6 µM,
CCN(CC)C(=O)CSc1ncnc2sc(-c3ccccc3)cc12,"inconclusive: 25.9 µM [inhibitor, single point]",
CCCN(CCC)C(=O)CSc1c2c(nc3ccc(Cl)cc13)CCCC2,active: 18.4 µM,
COc1ncnc2c1N[C@@](C)(O)c1c(F)c(F)c(F)c(F)c1S2,"inconclusive: 29.1 µM [inhibitor, single point]",
Cc1nc(-c2nc(CC(=O)NNC(=O)c3ccc(Cl)cc3)cs2)cs1,inactive,
Cc1cccc(NC(=O)CCN2CCN(C/C=C/c3ccccc3)CC2)c1,"inconclusive: 29.1 µM [inhibitor, single point]",
Cc1ccc(NC(=O)CN2C(=O)C(c3ccc(C(C)(C)C)cc3)=NC2(C)C)cc1,"inconclusive: 18.4 µM [inhibitor, single point]",
COc1ccc(-n2nc(C(=O)NCC(=O)NCCc3ccc(OC)c(OC)c3)c3ccccc3c2=O)cc1,"inconclusive: 25.9 µM [inhibitor, single point]",
COc1ccc(C)cc1NC(=O)CNC(=O)c1sc2ccccc2c1Cl,"inconclusive: 29.1 µM [inhibitor, single point]",
CC1(C)CC[C@]2(C(=O)O)CC[C@]3(C)C(=CCC4[C@@]5(C)CC[C@H](O)C(C)(C)C5[C@H](O)C[C@]43C)[C@@H]2C1 (some centres not stated),"inconclusive: 23.1 µM [inhibitor, single point]",

SMILES,Potency,"activity change, negative = growth inhibition"
COc1ccc(C(C)=O)cc1CSc1nnc(-c2ccccc2O)n1-c1ccccc1,"inconclusive: 12.6 µM [inhibitor, partial curve]",
Cc1ccc(Cl)cc1N1CCN(S(=O)(=O)c2c(C(=O)N3CCOCC3)c(C)n(C)c2C)CC1,"inconclusive: 16.4 µM [inhibitor, partial curve]",
Cc1onc(-c2ccccc2)c1C(=O)NCCCc1ccccc1,inactive,
CCN1C(=O)/C(=C/c2c(C)nn(C)c2C)SC1=S,"inconclusive: 13 µM [inhibitor, partial curve, poor fit]",
Cc1cc(C)cc(-n2c(SCC(=O)Nc3cccc(F)c3)nc3c([nH]c4ccccc43)c2=O)c1,inactive,
C=CCn1c(SCC(=O)c2[nH]c(C)c(C(C)=O)c2C)nnc1-c1ccncc1,"inconclusive: 14.6 µM [inhibitor, partial curve]",
Cc1ccc(C(=O)Nc2ccc(-c3nc4ccccc4o3)cc2)cc1Cl,"inconclusive: 13 µM [inhibitor, partial curve]",
O=C(Oc1c(-c2ccccc2)c(=O)n2c3c(cccc13)CC2)c1ccco1,inactive,
COc1ccc(SCCN2CC[C@@H](C)CCC2=O)cc1,"inconclusive: 35.5 µM [inhibitor, single point]",
Brc1ccc(Nc2c3c(nc4nncn24)CCC3)cc1,"inconclusive: 29.1 µM [inhibitor, single point]",
CCCOC(=O)c1ccc(Oc2c(-c3ccc(OC)cc3O)n[nH]c2C)cc1,"inconclusive: 20.6 µM [inhibitor, single point]",
COc1ccc(S(=O)(=O)NC2CC(=O)N(c3cccc(F)c3)C2)cc1OC (configuration not stated),"inconclusive: 14.6 µM [inhibitor, single point]",
CN(CC(=O)N1CCc2ccccc21)S(=O)(=O)c1ccc(Br)s1,,inconclusive: -33.1% [inhibitor]
CC(C)(C)OC(=O)N1CCN(C(=O)OCC2c3ccccc3-c3ccccc32)CC1C(=O)O (configuration not stated),active: 23.1 µM,
O=C(COc1ccc(Br)cc1)NCCCNC(=O)c1cccnc1,"inconclusive: 29.1 µM [inhibitor, single point]",
Cc1noc(C)c1COc1cccc(C(=O)N2CCc3ccccc32)c1,"inconclusive: 29.1 µM [inhibitor, single point]",
Cc1ccc(C)c(NC(=O)C(Cc2ccccc2)n2cccc2)c1 (configuration not stated),"inconclusive: 18.4 µM [inhibitor, single point]",
CCOc1ccc(S(=O)(=O)N2CCCCC2)c2ccccc12,active: 18.4 µM,
Cc1ccc(C(CNC(=O)c2ccc(Br)o2)N2CCN(C)CC2)cc1 (configuration not stated),"inconclusive: 20.6 µM [inhibitor, single point]",
COc1ccc(-c2nnc3sc(CCN4C(=O)c5ccccc5C4=O)nn23)cc1,inactive,
CC(C)(C)NC(=O)C[C@H]1C[C@H](C(=O)N2CCCCC2)[C@@]2(C)c3[nH]c4ccc(Cl)cc4c3CCN2C1=O,active: 23.1 µM,
COC(=O)c1c(NC(=O)c2ccc(OC(C)C)cc2)sc2c1CC(C)(C)NC2(C)C,"inconclusive: 29.1 µM [inhibitor, single point]",
CCOC(=O)C1CCN(C(=O)COC(=O)C23CC4CC(CC(C4)C2)C3)CC1,"inconclusive: 29.1 µM [inhibitor, single point]",

SMILES,Potency,"activity change, negative = growth inhibition"
CCC(=O)Nc1ccc(NC(=O)c2cc3ccccc3o2)c(OC)c1,"inconclusive: 6.51 µM [inhibitor, single point]",
COc1ccc(-c2cc(C(=O)Nc3ccc(S(N)(=O)=O)cc3)c3ccccc3n2)cc1OC,inactive,
Cc1cc(C)c(S(=O)(=O)N2CCN(C(=O)N(C)C)CC2)c(C)c1,"inconclusive: 13 µM [inhibitor, single point]",
COCCNc1nc2c(c(=O)n(Cc3cccc(Cl)c3)c(=O)n2C)n1C,"inactive and inconclusive: 29.1 µM [inhibitor, single point]",
COc1ccc(-n2c(CNc3ccc(C)cc3)nnc2SCC(=O)Nc2nc(-c3ccccc3)cs2)cc1,active: 5.62 µM,
O=C(CSc1nnc(-c2cccc(F)c2)o1)N1CCCC1,inactive,
CCc1ccc(NC(=O)C2=C(C)C(=O)OC23CCCCC3)cc1,active: 16.4 µM,
COc1ccc(OCC(=O)Nc2c(C(=O)N3CCN(c4ccccc4)CC3)oc3ccccc23)cc1,"inconclusive: 2.59 µM [inhibitor, full curve]",
Cc1ccc(C)c(C(O)c2ncc(-c3ccc(Cl)cc3)[nH]2)c1 (configuration not stated),"inconclusive: 29.1 µM [inhibitor, partial curve, poor fit]",
CC(C)CCCN1C(Nc2ccccc2)=NC[C@@H]1C,"inconclusive: 25.9 µM [inhibitor, single point]",
Cc1ccc(C2(C)NC(=O)N(CC(=O)NCc3cccc(Cl)c3)C2=O)cc1 (configuration not stated),inactive,
Cc1cc(C(=O)NNC(=S)NC(C)c2ccccc2)cs1 (configuration not stated),active: 23.1 µM,
O=C(NC(c1ccc(Cl)cc1)c1cccnc1)C1CCN(CCOc2ccc(Cl)cc2Cl)CC1 (configuration not stated),"inconclusive: 16.4 µM [inhibitor, single point]",
CCOC(=O)c1c(NC(=O)COC(=O)c2cc(OC)c(OC)cc2[N+](=O)[O-])sc(C)c1CC,"inconclusive: 8.2 µM [inhibitor, partial curve]",
O=C(O)c1cccc(NC(=O)c2cc3cc(Br)cc(Br)c3oc2=O)c1,inactive,
O=C(Nc1ccc(F)cc1)C(c1ccccc1OC(F)(F)F)N1CCN(C(=O)c2ccco2)CC1 (configuration not stated),"inconclusive: 25.9 µM [inhibitor, single point]",
CNc1nc(Cl)c(SC)c(NCc2cccc(OC)c2)n1,"inconclusive: 29.1 µM [inhibitor, single point]",
Cc1nc(-c2ccccc2)nc2[nH]c(=O)n(-c3ccccc3)c(=O)c12,"inconclusive: 29.1 µM [inhibitor, single point]",
CCCCN1CCCc2cc(CN(CCCN3CCOCC3)C(=O)Nc3ccc(CC)cc3)ccc21,"inconclusive: 29.1 µM [inhibitor, single point]",
CCCCOC(=O)Nc1nc2ccc(OC)cc2s1,,inconclusive: -33.5% [inhibitor]
O=C(Nc1ccc(Br)cc1)/C(=C/c1cccc([N+](=O)[O-])c1)NC(=O)C1CCCCC1,"inconclusive: 29.1 µM [inhibitor, single point]",
